We go through 71 compounds from PubChem BioAssay AID488969 (Vanderbilt High Throughput Screening Facility, 2010).

Structures are written as SMILES. Whole data set: some 110,000 compounds, median “z-score” near -0.1, cut for the highest 2% near 2. The list shows a part of the results.

The experiment addresses Metabotropic glutamate receptor 8 (Rattus norvegicus) (UniProt P70579). Nature of the experiment: rat mGluR8 modulators via GIRK flux, primary screen, cell-based, thallium flux, HTS (AID 488969). Conditions: HEK293 rat mGluR8, GIRK (G protein-gated inwardly rectifying potassium channel) thallium flux, FluoZin2; at 10 µM; stronger effect = higher value; submaximal glutamate (EC20) added with thallium.
Chain of UniProt P70579 (P70579 whole entry, looked up): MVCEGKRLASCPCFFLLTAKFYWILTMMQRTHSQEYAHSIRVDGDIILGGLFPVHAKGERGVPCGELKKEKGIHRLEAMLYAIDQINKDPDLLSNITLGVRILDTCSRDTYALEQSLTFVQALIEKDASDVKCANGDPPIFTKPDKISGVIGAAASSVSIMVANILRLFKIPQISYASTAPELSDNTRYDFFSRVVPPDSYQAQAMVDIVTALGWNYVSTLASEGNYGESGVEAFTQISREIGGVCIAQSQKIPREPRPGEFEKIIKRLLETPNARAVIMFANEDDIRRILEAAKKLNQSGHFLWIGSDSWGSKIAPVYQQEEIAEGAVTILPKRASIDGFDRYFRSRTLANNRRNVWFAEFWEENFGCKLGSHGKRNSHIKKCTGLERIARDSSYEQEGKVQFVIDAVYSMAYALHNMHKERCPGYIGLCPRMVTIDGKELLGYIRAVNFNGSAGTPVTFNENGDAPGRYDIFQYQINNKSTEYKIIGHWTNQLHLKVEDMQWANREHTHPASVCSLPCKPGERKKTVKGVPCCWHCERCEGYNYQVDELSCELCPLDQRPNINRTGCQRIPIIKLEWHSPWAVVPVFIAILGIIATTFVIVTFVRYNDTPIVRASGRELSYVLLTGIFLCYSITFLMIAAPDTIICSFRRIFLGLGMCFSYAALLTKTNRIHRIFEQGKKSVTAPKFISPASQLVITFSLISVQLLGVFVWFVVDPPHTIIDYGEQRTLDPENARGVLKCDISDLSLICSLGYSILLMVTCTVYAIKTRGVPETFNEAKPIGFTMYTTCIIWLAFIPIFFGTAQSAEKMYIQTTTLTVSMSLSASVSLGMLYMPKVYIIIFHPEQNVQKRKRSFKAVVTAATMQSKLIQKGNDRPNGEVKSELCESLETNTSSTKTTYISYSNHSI
With `CCCCNC(=S)NNC(=O)c1csc2ccccc12`, the z-score is 0.468.
In turn, `COC(=O)Nc1ccc(Oc2ccccc2)cc1` gave a z-score of -0.226.
Compound `COc1ccc(S(=O)(=O)N(C)CC(=O)NCc2cccnc2)cc1OC` came in with a z-score of -0.307.
Then `O=C(CCN1CCCC1)Nc1ccc(Br)cc1`, with -0.142.
In turn, `Cn1cnnc1Sc1nc2c(c(=O)n(C)c(=O)n2C)n1Cc1ccccc1Cl` came in with a z-score of -0.0672.
Consider `O=C(Nc1ccccc1N1CCCCC1)c1cccs1`, for which the z-score stood at 0.223.
In the case of `CC1CN(C(=O)c2ccccc2C(=O)c2ncc[nH]2)CC(C)O1` (stereo unspecified), the z-score was -0.287.
Then `CC(=O)N1CCN(C(=O)COc2ccc(Br)cc2)CC1`, with 0.512; and `Cc1ccc(S(=O)(=O)NNC(=O)C2CCN(Cc3ccccc3)CC2)cc1`, with -0.361.
Take `CCOc1ccccc1N1CCN(C(=O)Nc2cccc(Cl)c2)CC1`: the z-score was -1.28.
For `COc1cc(OC)c(C2CC(=O)N3CN(C)CSC3=C2C#N)cc1OC` (stereo unspecified), the z-score is -0.561.
Then `O=C(Nc1cccc(Cl)c1)N1CCCC1`, with 0.56; and `CC/C(=N\NC(=O)c1ccoc1C)c1ccc(C)o1`, with -0.0816; and `Cn1c(N)c(C(=O)c2ccccc2)c(=O)n(C)c1=O`, with -0.397.
With `COc1ccccc1N1CCN(C(=O)C(C)N(c2ccc(C)cc2)S(C)(=O)=O)CC1` (stereo unspecified) the figure was -0.377.
In turn, `N/C(=N\OC(=O)CCCOc1ccccc1)c1ccc(Br)cc1` showed a z-score of -0.188.
As for `CCCCC(=O)Nc1ccc(C(=O)N2CCN(C)CC2)cc1`, the z-score was 0.377.
With `CCc1c(C)sc(NC(=O)OC)c1C(N)=O` the figure was 0.111; with `NC(=O)Nc1ccc(C(=O)OCC(=O)Nc2ccc([N+](=O)[O-])cc2C(F)(F)F)cc1`, -0.192.
In turn, `CCOC(=O)c1cccc(NC(=O)CCn2nnc3ccccc32)c1` yielded a z-score of -0.406.
As for `COC(=O)c1cccc(NC(=O)C2C3CCC(C3)C2C(=O)O)c1` (stereo unspecified), the z-score was -0.265.
Turning to `Cc1nc(SCC(=O)Nc2nc3ccccc3s2)c(C#N)c(C)c1C`, the z-score is -0.047.
With `COc1cc2c(cc1OC)C(c1cc3cc4c(cc3[nH]c1=O)OCO4)N(C(=O)C1CC1)CC2` (stereo unspecified) the figure was -0.0712; with `CN1C(=O)C2(NCCc3c2[nH]c2ccccc32)c2ccccc21` (stereo unspecified), -1.03; with `CSc1ccc(-c2cc(=O)c3ccccc3o2)cc1`, -0.465.
`CC1(C)NC(=O)N(CC(O)CN2CCCC2)C1=O` (stereo unspecified) showed a z-score of 0.131.
Then `Cc1ccc(N2CC(C(=O)Nc3ccccn3)CC2=O)cc1` (stereo unspecified), with 0.165; and `CCOc1ccc(S(=O)(=O)n2ccc(C)n2)c2ccccc12`, with 0.487; and `CC(=O)N1CCc2ccc(C(=O)CN3CCN(c4cccc(C)c4C)CC3)cc21`, with -0.378.
Take `O=C(NC1CCCCC1)c1cc(Cl)nc2ccccc12`: the z-score was -0.135.
`CCOC(=O)c1c(-c2ccc(C)s2)csc1NC(=O)c1cccs1`: the z-score was 0.24.
With `CCCCC(c1nnnn1CC1CCCO1)N1CCN(Cc2ccccc2)CC1` (stereo unspecified) the figure was -0.127; with `CC1(C)Cc2nc3sc4c(SCC(=O)NCc5ccco5)ncnc4c3cc2CO1`, -0.999.
`O=C1CCCC2=C1C(c1ccc(Cl)cc1)n1c(s/c(=C\c3ccc4ccncc4c3)c1=O)=N2` (stereo unspecified): the z-score was -0.209.
`CCn1c(SC(C)C)nnc1-c1cc(-c2ccccc2)sc1N` came in with a z-score of -0.246.
In the case of `O=C(NCCOc1ccccc1Cl)c1cc(F)c(F)cc1Cl`, the z-score is -0.0579.
Consider `CCCCn1c2c(c(=N)c3c1CCC3)CCC2`, for which the z-score was -0.000682.
`CN(C)c1ccc(/C=N/N=C2/NC(=O)/C(=C/c3ccc([N+](=O)[O-])cc3)S2)cc1` showed a z-score of 0.0976.
In turn, `CCCCCC(=O)Nc1ccc(C(=O)N/N=C/c2ccc([N+](=O)[O-])cc2)cc1` had a z-score of 0.145.
In turn, `CC(C)OCCCNC(=S)Nc1ccc(S(N)(=O)=O)cc1` came in with a z-score of 0.0754.
As for `COc1ccc(C(=O)c2c(C)oc3cc([N+](=O)[O-])c(O)c([N+](=O)[O-])c23)cc1`, the z-score came to 0.0624.
Regarding `CCn1c(SCC(=O)N2CCc3ccccc32)nnc1-c1ccco1`, the z-score was -0.164.
Then `Cc1ccccc1OCc1nc2ccccc2c(=O)n1/N=C/c1cn[nH]c1-c1ccc(Br)cc1`, with -0.306; and `CSc1ccccc1NC(=O)CSCc1ccc(Br)cc1`, with -0.146; and `O=C(Nc1ccccc1)c1ccc(Nc2c([N+](=O)[O-])cc([N+](=O)[O-])c3ccccc23)cc1`, with -0.265.
`O=C(Nc1ccc([N+](=O)[O-])cc1)C1CC1(c1ccccc1)c1ccccc1` (stereo unspecified) yielded a z-score of 0.135.
Then `COc1ccc(OC)c(NC(=O)c2c3c(nc4ccccc24)CCC3)c1`, with -0.428; and `COCCn1c(C)c(C(=O)O)sc1=S`, with -0.353; and `CC1CN(C(=O)/C=C/c2cccc([N+](=O)[O-])c2)CC(C)O1` (stereo unspecified), with -0.164.
Compound `C=CCn1c(=NC(=O)c2ccco2)sc2cc(C(=O)OCC)ccc21` came in with a z-score of -0.0278.
As to `CCOc1cc(C2C(C#N)=C(N)Oc3n[nH]c(-c4ccccc4)c32)ccc1O` (stereo unspecified), the z-score was -0.392.
`Cc1cc(C)nc(/N=C(/NC(=O)Nc2ccc(Cl)c(Cl)c2)Nc2cccc(Cl)c2)n1` showed a z-score of 0.564.
The compound `COCc1cc(C)nc(Nc2ccc(C)c(C)c2)c1C#N` returned a z-score of 1.01.
With `CC(=O)Nc1c(C(=O)O)[nH]c2ccccc12` the figure was -0.038; with `CCOC(=O)c1nnn(-c2ccccc2)c1C`, 0.0748; with `C=CCn1c(=O)c2ccccc2n2c(SCC(=O)Nc3cc(C)on3)nnc12`, -0.737.
Then `COc1cccc(NC(=O)C(NCCC(C)C)c2ccccc2)c1` (stereo unspecified), with -0.531.
With `CCN1CCN(c2nc(Nc3cccc(C)c3)nc(N)c2[N+](=O)[O-])CC1` the figure was 0.231; with `CC(C)n1c(SC2CCOC2=O)nc2ccccc21` (stereo unspecified), -1.44; with `Cc1ccc(OCC(=O)NNC(=O)c2cccnc2)cc1`, 0.0457.
Compound `O=C1CCCc2c1[nH]c1ccccc21` came in with a z-score of 0.864.
With `C=CCN1C(=O)/C(=N/n2cnnc2)c2ccccc21` the figure was -0.415.
The compound `Cc1ccc(NC(=O)c2ccc(Nc3c([N+](=O)[O-])cc([N+](=O)[O-])cc3[N+](=O)[O-])cc2)cc1` registered a z-score of -0.158.
The compound `CCn1c(SCC(=O)NCc2ccc3c(c2)OCO3)nnc1-c1c[nH]c2ccccc12` showed a z-score of 0.897.
With `COc1ccc(N2CCN(CCCn3c(=S)[nH]c4ncccc4c3=O)CC2)cc1` the figure was 1.62; with `CN(C)CCCOC(=O)CCc1ccccc1`, 1.03.
As for `Cc1ccc(N(Cc2ccc(C(=O)NN=C3CCN(C)CC3)cc2)S(C)(=O)=O)cc1C`, the z-score was 0.0756.
On to `CC(=O)Nc1ccc(-n2c(C)nc(=O)c(-c3ccccc3)c2C)cc1`, for which the z-score was -0.224.
The compound `O=C(c1ccc(Cl)c(Cl)c1)c1cc(-c2ccccn2)c(N2CCOCC2)s1` had a z-score of -0.0956.
For the compound `CCC(=O)c1cn(CC(=O)NCc2cccnc2)c2ccccc12`, the z-score is -0.0962.
For `COc1ccccc1NC(=O)CNc1ccc(F)c(Cl)c1`, the z-score was -0.632.
